This note sets out measurements from ChEMBL document CHEMBL1961873, “Compounds: GSK PKIS; Assays: Nanosyn kinase panel” (2012).

Molecules are shown by their SMILES. For some of these results: Shown are results outside the selection of strong results, which stands elsewhere. This is a selection; strong and weak results do not stand in their true shares.

Experiment [1] deals with Tyrosine-protein kinase Blk (Homo sapiens) (UniProt P51451). The note with it: at 0.1 µM.
Experiment [2] shares this target. Conditions: at 1 µM.
Experiment [3] addresses T1, Cytoplasmic tyrosine-protein kinase BMX (Homo sapiens) (UniProt P51813).
T1 sequence (whole entry): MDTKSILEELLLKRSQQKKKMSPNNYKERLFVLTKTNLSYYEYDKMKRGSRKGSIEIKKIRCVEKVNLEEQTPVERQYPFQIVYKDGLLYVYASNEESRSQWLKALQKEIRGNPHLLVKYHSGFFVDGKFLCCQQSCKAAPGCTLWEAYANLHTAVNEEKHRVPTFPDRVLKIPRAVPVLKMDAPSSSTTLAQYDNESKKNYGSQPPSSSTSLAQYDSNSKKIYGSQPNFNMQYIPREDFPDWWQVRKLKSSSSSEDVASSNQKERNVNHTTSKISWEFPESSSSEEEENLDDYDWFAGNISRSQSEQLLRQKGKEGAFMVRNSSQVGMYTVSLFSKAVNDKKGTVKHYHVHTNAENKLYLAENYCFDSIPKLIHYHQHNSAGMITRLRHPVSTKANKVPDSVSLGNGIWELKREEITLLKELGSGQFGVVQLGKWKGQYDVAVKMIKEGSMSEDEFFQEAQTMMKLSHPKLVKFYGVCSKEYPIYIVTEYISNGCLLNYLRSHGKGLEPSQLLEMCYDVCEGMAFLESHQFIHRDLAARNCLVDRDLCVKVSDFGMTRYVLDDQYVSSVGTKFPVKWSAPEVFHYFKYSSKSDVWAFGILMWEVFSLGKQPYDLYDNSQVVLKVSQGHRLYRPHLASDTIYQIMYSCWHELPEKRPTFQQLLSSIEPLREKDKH
The note with it: at 0.1 µM.

Experiment [4] deals with T1, Cytoplasmic tyrosine-protein kinase BMX (Homo sapiens). The note with it: at 1 µM.
Experiment [5] concerns the target Protein-tyrosine kinase 6 (Homo sapiens) (UniProt Q13882). The note with it: at 0.1 µM.
Experiment [6] shares this target. The note with it: at 1 µM.
Experiment [7] has as its target Tyrosine-protein kinase BTK (Homo sapiens) (UniProt Q06187). The note with it: at 0.1 µM.
For experiment [8] the target is unchanged. The note with it: at 1 µM.
Experiment [9] deals with Tyrosine-protein kinase CSK (Homo sapiens) (UniProt P41240). The note with it: at 0.1 µM.
The target is the same in experiment [10]. The note with it: at 1 µM.
In experiment [11] the target is T2, Discoidin domain-containing receptor 2 (Homo sapiens) (UniProt Q16832).
T2 sequence (whole entry): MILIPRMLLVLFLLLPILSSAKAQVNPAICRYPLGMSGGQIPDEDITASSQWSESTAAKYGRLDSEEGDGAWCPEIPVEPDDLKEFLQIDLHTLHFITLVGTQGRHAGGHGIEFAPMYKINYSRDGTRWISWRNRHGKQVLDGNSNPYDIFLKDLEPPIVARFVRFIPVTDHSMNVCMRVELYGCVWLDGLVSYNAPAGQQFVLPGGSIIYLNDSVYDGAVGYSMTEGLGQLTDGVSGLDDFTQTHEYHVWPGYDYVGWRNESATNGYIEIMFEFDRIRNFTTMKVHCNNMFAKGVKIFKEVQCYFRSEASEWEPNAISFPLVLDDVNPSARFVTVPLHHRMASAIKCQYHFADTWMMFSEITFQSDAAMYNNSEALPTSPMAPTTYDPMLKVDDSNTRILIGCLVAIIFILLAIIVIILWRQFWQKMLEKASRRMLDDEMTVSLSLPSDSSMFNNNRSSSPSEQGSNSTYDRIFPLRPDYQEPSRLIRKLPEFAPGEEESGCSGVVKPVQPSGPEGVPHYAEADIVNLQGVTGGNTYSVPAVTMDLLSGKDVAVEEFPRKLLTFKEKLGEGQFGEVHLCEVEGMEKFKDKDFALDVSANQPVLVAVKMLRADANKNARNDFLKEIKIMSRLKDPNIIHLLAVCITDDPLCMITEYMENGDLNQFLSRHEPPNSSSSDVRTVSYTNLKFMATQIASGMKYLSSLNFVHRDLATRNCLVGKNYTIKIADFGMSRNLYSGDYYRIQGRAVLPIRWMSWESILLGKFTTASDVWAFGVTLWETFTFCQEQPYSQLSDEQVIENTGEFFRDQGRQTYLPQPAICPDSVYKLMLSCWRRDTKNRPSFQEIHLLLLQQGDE
The note with it: at 0.1 µM.

The target in experiment [12] is T2, Discoidin domain-containing receptor 2 (Homo sapiens). The note with it: at 1 µM.
The target of experiment [13] is Epidermal growth factor receptor (Homo sapiens) (UniProt P00533). Conditions: at 0.1 µM.
For experiment [14] the target is unchanged. Conditions: at 1 µM.
The subject of experiment [15] is Epidermal growth factor receptor (Homo sapiens), P00533 [L858R]. The note with it: at 0.1 µM.
Experiment [16] has the same test system. Conditions: at 1 µM.
Experiment [17] relates to Epidermal growth factor receptor (Homo sapiens), P00533 [L861Q]. Conditions: at 0.1 µM.
Experiment [18] shares this test system. The note with it: at 1 µM.
Experiment [19] has as its system Epidermal growth factor receptor (Homo sapiens), P00533 [T790M]. The note with it: at 0.1 µM.
The target in experiment [20] is Tyrosine-protein kinase receptor UFO (Homo sapiens) (UniProt P30530). The note with it: at 1 µM.

Broadly, the inhibition is the change of the read-out against control, counted positive when it falls.

For `Fc1ccc(Oc2nccc(-c3c(-c4ccc(F)cc4)ncn3C3CCNCC3)n2)cc1`, the inhibition is -1.53% in experiment [1]; -2.68% in experiment [2]; 3.71% in experiment [3]; 7.33% in [4]; 3.52% in experiment [5]; 3.45% in [6]. The inhibition in [7] is -4.19%; in experiment [8] it was -3.63%; in experiment [9], 1.71%; in experiment [10] it was 3%; in [11] it was 2.89%; in experiment [12], 1.5%. For the same molecule, the inhibition is -3% in [13]; -0.87% in experiment [14]; 2.26% in [15]; 4.51% in experiment [16]; 3.85% in [17]; 3.23% in experiment [18]. For the same molecule, the inhibition in experiment [19] was 1.97%.

Turning to `CS(=O)(=O)c1ccc(Oc2nccc(-c3c(-c4ccc(F)cc4)ncn3C3CCNCC3)n2)cc1`, the inhibition in [20] was -5.8%; in [1] it was 1.82%; in [2], 3.05%; in experiment [3], 4.47%; in [4], 3.37%; in experiment [5] it was 4.09%. In addition, the inhibition in experiment [6] was 5.67%; in [7], -0.44%; in experiment [8], -0.02%; in experiment [9] it was -0.29%; in experiment [10], 2.01%; in experiment [11] it was 2.29%. Besides, the inhibition in experiment [12] came to 4.56%; in experiment [13] it was 0.66%; in experiment [14] it was 5.48%; in experiment [15], 1.08%; in [16], 3%; in experiment [17], 3.15%. The inhibition in [18] came to 3.64%; in [19], 0.7%.

Regarding `Fc1ccc(-c2ncn(C3CCNCC3)c2-c2ccnc(Oc3ccc(Cl)cc3)n2)cc1`, the inhibition amounted to 0.46% in experiment [20]; 0.54% in [1]; 1.92% in [2]; 0.19% in [3]; 1.7% in experiment [4]; 2.34% in experiment [5]. Moreover, the inhibition in experiment [6] was 1.01%; in [7], 0.07%; in experiment [8], 1.2%; in experiment [9], 0.72%; in experiment [10] it was -0.81%; in experiment [11] it was -0.11%. The inhibition in experiment [12] amounted to 0.47%; in experiment [13], 6.48%; in experiment [14], 7.82%; in experiment [15], 2.38%; in [16], 4.45%; in experiment [17], 0.88%. Further, the inhibition in [18] was found to be 2.63%; in experiment [19] it was 0.03%.

As to `O=C1NC(=O)C(c2cccc([N+](=O)[O-])c2)=C1Nc1cc(Cl)c(O)c(Cl)c1`, the inhibition in experiment [20] stood at 1.02%; in [1], 3.37%; in [2] it was 1.36%; in experiment [3], 1.71%; in experiment [4] it was 0.42%; in experiment [5], 1.7%. Besides, the inhibition amounted to 2.07% in experiment [6]; 1.4% in [7]; 1.62% in experiment [8]; 0.51% in [9]; 0.7% in experiment [10]; 0.6% in experiment [11]. Further, the inhibition in experiment [12] is 1.09%; in experiment [13], -1.1%; in experiment [14], 1.18%; in experiment [15], 1.44%; in [16] it was 0.45%; in [17], 0.79%. Also, the inhibition was 0.25% in [18] and -0.19% in [19].

Regarding `COc1ccccc1C1=C(Nc2ccccc2)C(=O)NC1=O`, the inhibition is -1.8% in experiment [20]; 2.73% in experiment [1]; 12.8% in experiment [2]; -0.78% in experiment [3]; 3.52% in [4]; 1.85% in experiment [5]. Besides, the inhibition came to 3.7% in experiment [6]; 1.08% in experiment [7]; 1.15% in [8]; 3.93% in experiment [9]; 5.49% in experiment [10]; 3.1% in experiment [11]. The inhibition in experiment [12] turned out to be 9.17%; in experiment [13], 1.41%; in [14] it was 1.39%; in experiment [15], 1.11%; in experiment [16], 0.26%; in experiment [17], 1.64%. Also, the figures for the inhibition in [18] and in experiment [19] were 1.68% and 1.2%, respectively.

Take `O=C1NC(=O)C(c2ccccc2Cl)=C1Nc1cc(Cl)c(O)c(Cl)c1`: the inhibition is -4.63% in [20]; 2.25% in experiment [1]; 1.18% in experiment [2]; -1.65% in [3]; 5.49% in experiment [4]; 3.24% in experiment [5]. The inhibition was 3.13% in experiment [6]; 0.41% in [7]; -0.19% in experiment [8]; 7.73% in experiment [9]; 11.5% in experiment [10]; 5.07% in experiment [11]. The inhibition in [12] worked out at 4.45%; in experiment [13], 2.04%; in experiment [14] it was 0.23%; in experiment [15], 4.81%; in [16], 9.31%; in experiment [17] it was 3.34%. Also, the inhibition in experiment [18] amounted to 4.23%; in experiment [19], 2.96%.

`Fc1ccc(-c2ncn(C3CCNCC3)c2-c2ccnc(Oc3cccc(C(F)(F)F)c3)n2)cc1`: the inhibition was -6.06% in experiment [20]; 2.9% in experiment [1]; 5.32% in experiment [2]; 5.27% in [3]; 4.97% in [4]; 5.49% in [5]. Besides, the inhibition was 7.39% in [6]; -0.1% in experiment [7]; 2.74% in experiment [8]; 5.43% in experiment [9]; 5.55% in experiment [10]; 2.39% in experiment [11]. Besides, the inhibition came to 2.26% in [12]; 0.99% in experiment [13]; 5.74% in experiment [14]; 3.27% in experiment [15]; 10.1% in experiment [16]; 4.1% in [17]. For the same molecule, the figures for the inhibition in experiment [18] and in experiment [19] were 4.4% and 3.65%, respectively.
